In all, about 310,000 compounds went through this assay and about 14,000 (4.5%) showed an effect of 50% or more. The effect is printed as a negative number. Some of the results follow.
The compounds below were run against human ether-à-go-go-related gene (hERG) potassium channel (human, UniProt Q12809) (assay: primary screen, population patch clamp on CHO cells stably expressing hERG).
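Also: peak tail current of the secondary pulse compared with the same well before compound.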

human ether-à-go-go-related gene (hERG) potassium channel, sequence (Q12809 whole entry, looked up): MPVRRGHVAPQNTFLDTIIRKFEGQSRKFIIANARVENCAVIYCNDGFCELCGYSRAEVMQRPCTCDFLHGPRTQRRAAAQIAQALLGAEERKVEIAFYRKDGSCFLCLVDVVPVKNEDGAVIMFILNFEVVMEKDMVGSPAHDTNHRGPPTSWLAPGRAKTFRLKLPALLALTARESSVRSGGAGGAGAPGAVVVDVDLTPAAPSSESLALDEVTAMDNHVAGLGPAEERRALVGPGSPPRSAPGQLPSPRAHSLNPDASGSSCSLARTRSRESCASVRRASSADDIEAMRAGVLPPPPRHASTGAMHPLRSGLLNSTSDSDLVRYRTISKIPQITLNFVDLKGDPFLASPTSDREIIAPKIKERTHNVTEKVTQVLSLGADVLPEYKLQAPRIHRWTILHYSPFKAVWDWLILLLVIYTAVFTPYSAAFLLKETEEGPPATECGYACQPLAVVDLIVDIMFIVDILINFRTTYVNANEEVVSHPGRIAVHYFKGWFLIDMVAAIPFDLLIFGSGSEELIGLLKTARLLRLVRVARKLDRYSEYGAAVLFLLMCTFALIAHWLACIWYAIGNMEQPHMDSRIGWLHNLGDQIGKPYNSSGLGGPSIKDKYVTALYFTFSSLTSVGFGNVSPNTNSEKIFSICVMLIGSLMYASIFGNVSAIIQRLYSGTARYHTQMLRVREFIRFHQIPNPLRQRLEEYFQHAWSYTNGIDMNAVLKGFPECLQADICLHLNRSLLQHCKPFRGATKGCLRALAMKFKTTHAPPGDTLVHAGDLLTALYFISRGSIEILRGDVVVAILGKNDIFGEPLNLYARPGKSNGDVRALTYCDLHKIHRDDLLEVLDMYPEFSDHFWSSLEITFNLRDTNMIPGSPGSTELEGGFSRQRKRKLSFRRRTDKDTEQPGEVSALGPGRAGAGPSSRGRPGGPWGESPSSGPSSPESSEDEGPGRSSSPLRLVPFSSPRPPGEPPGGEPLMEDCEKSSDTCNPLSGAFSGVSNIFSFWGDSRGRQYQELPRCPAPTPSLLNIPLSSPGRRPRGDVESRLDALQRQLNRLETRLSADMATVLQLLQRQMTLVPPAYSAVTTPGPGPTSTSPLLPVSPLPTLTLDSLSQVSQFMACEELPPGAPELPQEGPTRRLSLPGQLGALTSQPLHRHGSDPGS

Point of comparison: `O=C(NCC(=O)N(Cc1cccs1)C(C(=O)NC1CCCCC1)c1cccnc1)c1ccco1` (stereo not drawn), “hERG current change (%, negative = inhibition) at 10uM” value 5.48%. Against it:
- Cc1ccc(SCCC(=O)N(C)CC(=O)Nc2c(C)cccc2C)cc1 — lower, -35.2%
- CC(=O)c1sc(-c2ccc(Cl)cc2)cc1N — higher, 10.6%
- CCOC(=O)c1ccc(Oc2cn[nH]c2-c2ccc(OCC(=O)NN)cc2O)cc1 — higher, 10.5%
- CC(C(=O)Nc1ccc(O)c(C(=O)O)c1)N1C(=O)/C(=C/c2cccs2)SC1=S (stereo not drawn) — higher, 17.6%
- Cc1ccc(CSc2ccc3nnc(-c4ccccn4)n3n2)cc1 — lower, -71.8%
- CC1CCC(NC(=O)CN2CCC(n3nnc4cc(F)ccc43)CC2)CC1 (stereo not drawn) — lower, -58.4%
- O=C(c1ccc(Oc2ccccc2)cc1)C1CCCN(C(=O)c2cnccn2)C1 (stereo not drawn) — lower, -24%
- CCOC(=O)C1CCN(C(c2cc3ccc(C)cc3[nH]c2=O)c2nnnn2C2CCCCC2)CC1 (stereo not drawn) — lower, -44.5%
- COc1ccc(CCC(=O)NCC(=O)OCc2ccccc2)cc1 — higher, 14.4%
- COC(=O)[C@@]12CCCN1[C@H](c1ccc(-c3ccc(F)cc3)cc1)[C@H]1C(=O)N(C)C(=O)[C@H]12.O=C(O)C(F)(F)F — lower, -31.2%
- S=C(c1ccc(N2CCCC2)c(Br)c1)N1CCCCC1 — lower, 4.25%
- CCc1ccc(C(=O)COC(=O)c2cc([N+](=O)[O-])ccc2NCCO)cc1 — lower, -10.4%
- COC(=O)Cn1c(C)c(C(C)=O)c(C(C)=O)c1C — higher, 14.1%
- CN1CCN(c2nnc(-c3ccccc3)c(-c3ccccc3)n2)CC1 — lower, -11.8%
- Cc1cc(NC(=O)CCC(=O)N(CCc2ccccc2)C(C(=O)NC2CCCC2)c2ccco2)no1 (stereo not drawn) — lower, -66.1%
- Cc1cccc(CCNC(=O)CCS(=O)(=O)c2cc3c(cc2C)NC(=O)CO3)c1 — lower, -21%
- CCN(CC)S(=O)(=O)c1cc(NC(=O)C(C)Nc2ccccc2N2CCOCC2)ccc1C (stereo not drawn) — higher, 30.5%
- O=c1cc(Cl)[nH]n(-c2ccccc2)c1=O — higher, 17.9%
- OCCN(Cc1ccccc1)Cc1cccc(F)c1 — lower, 3.32%
- CCN(CC)C(=O)Cn1cc(C(=O)C(=O)N2CCN(c3ccccc3)CC2)c2ccccc21 — lower, -0.908%
- COc1cc(/C=C2/CC(C)OC2=O)c([N+](=O)[O-])cc1OC (stereo not drawn) — higher, 11.1%
- CCOC(=O)C1CCN(C(=O)c2ccc(Cl)c(S(=O)(=O)N3CCOCC3)c2)CC1 — lower, -32.4%
- O=C(N/N=C/c1ccc(OC(=O)c2ccccc2Cl)cc1)c1ccc(O)cc1 — higher, 11%
- CC(=O)NCCOc1nc(N(C)C)nc(N2CCCCC2)n1 — lower, -8.91%
- COCCn1c(SCC(=O)c2cccc(OC)c2)nnc1-c1ccco1 — lower, -14.7%
- CN1C(=O)C(=O)/C(=C(/O)c2ccc(Br)cc2)C1c1ccc(F)cc1 (stereo not drawn) — lower, -0.395%
- CCOc1ccc(CCNC(=O)C2CCCN(c3nnc(-n4cccc4)s3)C2)cc1OCC (stereo not drawn) — lower, -20%
- COCCN(C(=O)CCC(=O)Nc1cc(C)on1)C(C(=O)NC1CCCC1)c1ccccc1C (stereo not drawn) — higher, 14.7%
- COC(=O)C1N2C(=O)[C@@H](NC(=O)COc3ccccc3)[C@H]2SC1(C)C (stereo partly drawn) — lower, -4.31%
- CCOC(=O)C1=C(c2ccccc2)OC(N)=C(C#N)C1c1cccs1 (stereo not drawn) — lower, 3.11%
- COc1ccccc1C(=O)NCCC(=O)N1CCCCCCC1 — lower, 4.61%
- COc1ccc(-c2nc(-c3cccc(C)c3)no2)cc1OC — higher, 10.7%
- CC1(C)Cc2sc3c(=O)[nH]c(=S)[nH]c3c2CO1 — higher, 16.6%
- Cc1ccc(S(=O)(=O)Nc2ccc(O)c(S(=O)(=O)c3ccc(C)cc3)c2)cc1 — higher, 23.6%
- COc1cccc(NS(=O)(=O)c2ccc(-n3cccn3)cc2)c1 — lower, 5.11%
- Cc1cc(C)cc(OCC(=O)Nc2ccc3c(c2)OCCO3)c1 — higher, 10.8%
- O=c1[nH]nc(N2CCOCC2)c(=O)[nH]1 — lower, 2.93%
- O=C(NCCc1cn2ccccc2n1)c1cc(COc2c(F)cccc2F)on1 — lower, -64.9%
- O=C(COc1ccc(Br)cc1Cl)NC1CCCCC1 — higher, 9.84%
- COc1ccc(-c2cc(C)no2)cc1S(=O)(=O)N1CCN(c2cccc(C)c2)C(C)C1 (stereo not drawn) — higher, 12.2%
- COc1ccc(CCNC(=O)C(=O)Nc2ccc3c(c2)OCO3)cc1OC — lower, -7.82%
- CN1CCN(C2Cc3cc(Cl)ccc3Sc3cc(F)ccc32)CC1.CS(=O)(=O)O (stereo not drawn) — lower, -38.2%
- COC(=O)c1ccc(C)c(NS(=O)(=O)c2ccc(C)c([N+](=O)[O-])c2)c1 — lower, -25.8%
- C=CCn1cc(C=C2C(=O)N(C)C(=O)N(C)C2=O)c2ccccc21 — higher, 23.9%
- CCc1cc2c(=O)c(-c3ccc4c(c3)OCCO4)coc2cc1OC(=O)c1ccco1 — lower, -0.816%
- c1ccc(Cn2c(CNc3nc4ccccc4n3CCN3CCOCC3)nc3ccccc32)cc1 — lower, -84.3%
- N#CCSc1nnc2sc3ccccc3n12 — higher, 9.35%
- CC(=O)c1cccc(NC(=O)CC2SC(N3CCCCC3)=NC2=O)c1 (stereo not drawn) — lower, -18.6%
- Cc1cc(C)nc(N/N=C/C(Cl)=C/c2ccccc2)n1 — lower, -9.42%
- Cl.O=C(/C=C/c1ccco1)OCC1CCCN2CCCCC12 (stereo not drawn) — lower, -10.4%
- CCCS(=O)(=O)c1c(S(=O)(=O)CCC)c2cnccn2c1C(=O)c1ccc(OC)cc1 — higher, 11.9%
- Oc1ccccc1CNc1nccs1 — higher, 21.3%
- Cc1ccc(-n2c(SCC(=O)Nc3cc(S(=O)(=O)N4CCOCC4)ccc3Cl)nc3ccccc3c2=O)cc1 — lower, 2.71%
- O=C(CCCc1ccccc1)N1CCN(c2ccc([N+](=O)[O-])cc2)CC1 — lower, -64.7%
- CC(=O)N1CCN(S(=O)(=O)c2ccc(S(=O)(=O)NCC(C)C)cc2)CC1.O=C(O)C(=O)O — lower, -4.06%
- CCn1cc(C(=O)N2CCN(c3ccc(OC)cc3)CC2)c(=O)c2cc(S(=O)(=O)N3CCOCC3)ccc21 — lower, -25.4%
- Cl.Oc1ccc(Cl)cc1CNCc1ccc(F)cc1 — lower, -12.9%
- C=CCSC1=C(C#N)C(c2ccccc2)CC(=O)N1 (stereo not drawn) — lower, -8.2%
- CCCCOc1ccc(C(=O)N2CCNC(=O)C2CC(=O)OC(C)C)cc1 (stereo not drawn) — higher, 13.1%
- COc1nc(N2CCOCC2)nc(-n2cccc2)n1 — lower, -4.33%
- CCn1c(O)c(C=NCc2ccccc2)c(=O)[nH]c1=S — higher, 24.1%
- CCOC(=O)C(NCc1ccccc1OC)(NC(=O)c1ccccc1)C(F)(F)F (stereo not drawn) — lower, 2.04%
- CC(=O)Nc1ccc(Oc2ccc3nc(C)[nH]c3c2)cc1 — higher, 21.7%
- COc1ccc(CCNC(=O)CCC2COc3ccccc3O2)cc1OC (stereo not drawn) — lower, 0.425%
- O=C(COC(=O)C1CCN(S(=O)(=O)c2ccc3c(c2)OCCO3)CC1)Nc1ccccc1OC(F)F — higher, 11.3%
- O=C(N/N=C/c1[nH]c2ccccc2c1Cl)c1cccc(Br)c1 — higher, 13.7%
- COC(=O)CSc1cccc2c1C(=O)CC2c1ccccc1 (stereo not drawn) — lower, -21%
- CN(C(=O)C1CCC(=O)N(Cc2ccccc2F)C1)C1CCOCC1 (stereo not drawn) — higher, 10.2%
- CNC(=O)/C(C#N)=C/c1c(F)cccc1Cl — higher, 11.8%
- Oc1ccc2ccccc2c1Br — higher, 9.16%
- COc1ccc(C(=O)n2cnnc2N)cc1 — lower, 0.371%
- COc1cc(NC(=O)c2cc(C(C)C)on2)c(OC)cc1Cl — lower, 3.16%
- Nc1cccc(C(=O)Nc2ccc(N)cc2Cl)c1 — lower, 4.49%
- Cc1cccc(NC(=O)C2CCCN2C(=O)NC2CCCCC2)c1 (stereo not drawn) — higher, 27.8%
- O=c1[nH]c2cc3c(cc2cc1CN(Cc1cccs1)Cc1nnnn1Cc1ccco1)OCCO3 — lower, -26.7%
- CC(N)C12CC3CC(C1)CC(C(C)N)(C3)C2.Cl (stereo not drawn) — lower, 4.42%
- O=C(O)CSc1c(-c2ccccc2)[nH]c2ccccc12 — higher, 17.8%
- CCOCCCNC(=O)Cc1ccc(OC)c(OC)c1 — higher, 14.1%
- Cc1onc(-c2c(Cl)cccc2Cl)c1C(=O)N[C@@H]1C(=O)N2[C@@H]1SC(C)(C)[C@@H]2C(=O)[O-].O.[Na+] — higher, 13.1%
- COc1ccc(-c2cc(=O)n(CCC#N)[nH]2)cc1 — higher, 25.3%
- CS(=O)(=O)c1cccc(C(=O)NC(c2ccccc2)c2ccccc2)c1 — lower, -28%
- CCOC(=O)C1=CC[C@@H](c2ccco2)N(S(=O)(=O)c2ccc(C)cc2)[C@H]1C(=O)OCC — lower, -17.8%
- COC(=O)c1ccc(NC2c3ncccc3C(=O)N2Cc2cccs2)cc1 (stereo not drawn) — lower, -41%
- O=C(O)/C=C/c1ccc(S(=O)(=O)Nc2ccccc2C(=O)Nc2ccc(F)cc2)cc1 — higher, 19.2%
- CCN(CC(=O)Nc1ccc2c(c1)OCCO2)C(=O)COc1ccc(C)cc1 — lower, -9.49%
- CSc1nc(C)c(C(=O)C[n+]2ccccc2C)cc1C#N.[Br-] — lower, -23.4%
